Assay results published in the supplement of paper PMC8728848.
The list shows a part of the results.

Tests used:
Assay in all cases: glycan array binding signal (z-score within array); higher = stronger binding
Conditions in all cases: glycan notation: IUPAC condensed, linker removed
[1] = molecular target: GalNAc(b1-3)GalNAc
In short: (§1)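 Arrays were curated from the Consortium for Functional Glycomics database, 3228 in total, and kept only where the protein sequence was available. Binding is expressed as a within-array Z-score. This score was averaged across arrays of the same protein sequence at different concentrations or buffers and across linkers, and negative values can be read as non-binding.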

[2] = molecular target: GalNAc(b1-4)GlcNAc
In short: as §1

[3] = molecular target: Glc(a1-4)Glc
In short: as §1

[4] = molecular target: Glc(a1-6)Glc(a1-6)Glc
In short: as §1

[5] = molecular target: Glc(b1-4)Glc
In short: as §1

[6] = molecular target: Glc(b1-6)Glc
In short: as §1

[7] = molecular target: GlcA(b1-3)Gal
In short: as §1

[8] = molecular target: GlcA(b1-3)GlcNAc
In short: as §1

[9] = molecular target: GlcA(b1-6)Gal
In short: as §1

[10] = molecular target: GlcNAc(a1-3)Gal(b1-4)GlcNAc
In short: as §1

[11] = molecular target: GlcNAc(a1-6)Gal(b1-4)GlcNAc
In short: as §1

[12] = molecular target: GlcNAc(b1-2)Gal(b1-3)GalNAc
In short: as §1

[13] = molecular target: GlcNAc(b1-2)Man(a1-3)[GlcNAc(b1-2)Man(a1-6)]Man(b1-4)GlcNAc(b1-4)GlcNAc
In short: as §1

[14] = molecular target: GlcNAc(b1-3)Gal
In short: as §1

[15] = molecular target: GlcNAc(b1-3)Gal(b1-3)GalNAc
In short: as §1

[16] = molecular target: GlcNAc(b1-3)Gal(b1-4)Glc
In short: as §1

[17] = molecular target: GlcNAc(b1-3)Gal(b1-4)GlcNAc
In short: as §1

[18] = molecular target: GlcNAc(b1-3)Gal(b1-4)GlcNAc(b1-3)Gal(b1-4)GlcNAc
In short: as §1

[19] = molecular target: GlcNAc(b1-3)GalNAc
In short: as §1

[20] = molecular target: GlcNAc(b1-3)Man
In short: as §1

[21] = molecular target: GlcNAc(b1-3)[GlcNAc(b1-4)][GlcNAc(b1-6)]GlcNAc
In short: as §1

[22] = molecular target: GlcNAc(b1-3)[GlcNAc(b1-6)]Gal(b1-4)GlcNAc
In short: as §1

[23] = molecular target: GlcNAc(b1-3)[GlcNAc(b1-6)]GalNAc
In short: as §1

[24] = molecular target: GlcNAc(b1-4)Gal(b1-4)GlcNAc
In short: as §1

[25] = molecular target: GlcNAc(b1-4)GlcNAc
In short: as §1

[26] = molecular target: GlcNAc(b1-4)GlcNAc(b1-4)GlcNAc
In short: as §1

[27] = molecular target: GlcNAc(b1-4)GlcNAc(b1-4)GlcNAc(b1-4)GlcNAc(b1-4)GlcNAc
In short: as §1

[28] = molecular target: GlcNAc(b1-4)GlcNAc(b1-4)GlcNAc(b1-4)GlcNAc(b1-4)GlcNAc(b1-4)GlcNAc
In short: as §1

[29] = molecular target: GlcNAc(b1-4)[GlcNAc(b1-6)]GalNAc
In short: as §1

[30] = molecular target: GlcNAc(b1-6)Gal(b1-4)GlcNAc
In short: as §1

[31] = molecular target: GlcNAc(b1-6)GalNAc
In short: as §1

[32] = molecular target: GlcNAc3Prop(b1-4)GlcNAc
In short: as §1

[33] = molecular target: Kdn(a2-3)Gal(b1-3)GlcNAc
In short: as §1

[34] = molecular target: Kdn(a2-3)Gal(b1-4)GlcNAc
In short: as §1

[35] = molecular target: Man(a1-2)Man(a1-2)Man(a1-3)Man
In short: as §1

[36] = molecular target: Man(a1-2)Man(a1-2)Man(a1-6)[Man(a1-3)]Man
In short: as §1

[37] = molecular target: Man(a1-2)Man(a1-3)Man
In short: as §1

[38] = molecular target: Man(a1-2)Man(a1-3)[Man(a1-2)Man(a1-6)]Man
In short: as §1

[39] = molecular target: Man(a1-2)Man(a1-3)[Man(a1-2)Man(a1-6)]Man(a1-6)[Man(a1-2)Man(a1-2)Man(a1-3)]Man
In short: as §1

[40] = molecular target: Man(a1-2)Man(a1-3)[Man(a1-2)Man(a1-6)]Man(a1-6)[Man(a1-2)Man(a1-2)Man(a1-3)]Man(b1-4)GlcNAc(b1-4)GlcNAc
In short: as §1

[41] = molecular target: Man(a1-2)Man(a1-3)[Man(a1-6)]Man(a1-6)[Man(a1-2)Man(a1-3)]Man(b1-4)GlcNAc(b1-4)GlcNAc
In short: as §1

[42] = molecular target: Man(a1-2)Man(a1-6)[Man(a1-3)]Man(a1-6)[Man(a1-2)Man(a1-2)Man(a1-3)]Man
In short: as §1

[43] = molecular target: Man(a1-2)Man(a1-6)[Man(a1-3)]Man(a1-6)[Man(a1-2)Man(a1-2)Man(a1-3)]Man(b1-4)GlcNAc(b1-4)GlcNAc
In short: as §1

[44] = molecular target: Man(a1-3)[Man(a1-6)]Man
In short: as §1

[45] = molecular target: Man(a1-3)[Man(a1-6)]Man(a1-6)[Man(a1-2)Man(a1-3)]Man(b1-4)GlcNAc(b1-4)GlcNAc
In short: as §1

B1: MD-2 (Homo sapiens) (protein)
chain: MLPFLFFSTLFSSIFTEAQKQYWVCNSSDASISYTYCDKMQYPISINVNPCIELKGSKGLLHIFYIPRRDLKQLYFNLYITVNTMNLPKRKEVICRGSDDDYSFCRALKGETVNTTISFSFKGIKFSKGKYKCVVEAISGSPEEMLFCLEFVILHQPNSN
[1]
  glycan array binding signal (z-score): -0.429
[2]
  glycan array binding signal (z-score): -0.336
[3]
  glycan array binding signal (z-score): -0.356
[4]
  glycan array binding signal (z-score): -0.181
[5]
  glycan array binding signal (z-score): -0.07
[6]
  glycan array binding signal (z-score): -0.2
[7]
  glycan array binding signal (z-score): -0.096
[8]
  glycan array binding signal (z-score): -0.264
[9]
  glycan array binding signal (z-score): 0.126
[10]
  glycan array binding signal (z-score): -0.273
[11]
  glycan array binding signal (z-score): -0.163
[12]
  glycan array binding signal (z-score): -0.155
[13]
  glycan array binding signal (z-score): -0.316
[14]
  glycan array binding signal (z-score): -0.322
[15]
  glycan array binding signal (z-score): -0.326
[16]
  glycan array binding signal (z-score): -0.35
[17]
  glycan array binding signal (z-score): -0.134
[18]
  glycan array binding signal (z-score): 0.006
[19]
  glycan array binding signal (z-score): -0.327
[20]
  glycan array binding signal (z-score): -0.282
[21]
  glycan array binding signal (z-score): -0.273
[22]
  glycan array binding signal (z-score): 0.092
[23]
  glycan array binding signal (z-score): -0.385
[24]
  glycan array binding signal (z-score): -0.235
[25]
  glycan array binding signal (z-score): -0.346
[26]
  glycan array binding signal (z-score): -0.269
[27]
  glycan array binding signal (z-score): 4.23
[28]
  glycan array binding signal (z-score): 5.59
[29]
  glycan array binding signal (z-score): -0.369
[30]
  glycan array binding signal (z-score): -0.164
[31]
  glycan array binding signal (z-score): -0.474
[32]
  glycan array binding signal (z-score): -0.375
[33]
  glycan array binding signal (z-score): -0.332
[34]
  glycan array binding signal (z-score): -0.223
[35]
  glycan array binding signal (z-score): -0.476
[36]
  glycan array binding signal (z-score): -0.388
[37]
  glycan array binding signal (z-score): -0.386
[38]
  glycan array binding signal (z-score): -0.391
[39]
  glycan array binding signal (z-score): -0.389
[40]
  glycan array binding signal (z-score): 0.372
[41]
  glycan array binding signal (z-score): -0.264
[42]
  glycan array binding signal (z-score): -0.375
[43]
  glycan array binding signal (z-score): -0.319
[44]
  glycan array binding signal (z-score): -0.423
[45]
  glycan array binding signal (z-score): -0.059
